# Measured values published in PubChem BioAssay AID686978 (National Center for Advancing Translational Sciences (NCATS), 2013).
# Out of some 420,000 compounds screened, about 64,000 (15%) were called active. This list was built around the results that the source calls inconclusive (neither active nor inactive); the mix of calls is not that of the screen. The call rests on the fitted dose curve; in most records, active means well fitted inhibition curve with a large enough effect; inconclusive means small, poorly fitted or top-dose-only effect; inactive means flat fitted curve, though single readings scatter. Potencies of inconclusive entries are left out as doubtful fits.
# Assay: qHTS for Inhibitors of human tyrosyl-DNA phosphodiesterase 1 (TDP1): qHTS in cells in absence of CPT; further: nearly all actives have a fitted effect of over 55% in size
# Conditions: DT40 Tdp1-/- hTDP1 cells, no CPT, ATP luminescence, 48 h; activity change, negative = growth inhibition: at 46.2 µM (top of the series) unless noted
# Procedure, shortened: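 Chicken DT40 Tdp1-/- cells complemented with human TDP1, screened without camptothecin (DMSO vehicle only), 400 cells/well. Compounds pin-transferred, cells incubated at 37 °C for at least 48 hr. Growth read as ATP-dependent luminescence (CellTiter-Glo, 30 min at RT).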
# On the % scale 0 is the no-effect control and ±100 the full control effect; potency means the concentration at half of the fitted maximal effect; tags describe the fitted curve by direction and shape.
SMILES,"activity change, negative = growth inhibition",Potency
COC(=O)c1cc(NC(=O)Nc2ccccc2OC)cc(C(=O)OC)c1,inactive: -29.7%,–
COc1ccccc1NC(=O)c1cc(C2CC2)nc2c1c(C)nn2-c1ccc(C)cc1,–,"inconclusive [inhibitor, single point]"
O=[N+]([O-])c1cc(S(=O)(=O)N2CCCC2)ccc1N/N=C1/CCCc2ccccc21,–,"inconclusive [inhibitor, single point]"
Cc1cccc(NC(=O)CSc2nnc([C@H](C)NC(=O)OC(C)(C)C)o2)c1C,–,"inconclusive [inhibitor, single point]"
NC(=O)c1ccc(NC(=O)COC(=O)C(Cc2ccccc2)NC(=O)c2ccccc2)cc1 (stereo not given),inactive: -4.54%,–
O=c1c(N2CCc3ccccc3C2)csc2ccc(Br)cc12,–,"inconclusive [inhibitor, single point]"
Cc1ccc(Cl)cc1NC(=O)CN1CCN(S(=O)(=O)N2CCC(C)CC2)CC1,inconclusive: -30.2% [inhibitor],–
O=C(CN1C(=O)NC2(CCCc3ccccc32)C1=O)N1CCN(c2cccc(C(F)(F)F)c2)CC1 (stereo not given),–,"inconclusive [inhibitor, full curve, poor fit]"
COc1cc(OC)c(OC)cc1/C=N/NC(=S)NCC1CCCO1 (stereo not given),–,"inconclusive [inhibitor, partial curve]"
C=CCn1cnc2c(nnn2-c2ccc(Cl)cc2)c1=O,inactive: -10.9%,–
COc1ccccc1Cc1nc2ccccc2nc1SCC(=O)N1CCC(C)CC1,–,active: 9.2 µM
Cc1cccc(-c2nc3c(c(SCC(=O)N4CCCC4)n2)COC(C)(C)C3)c1,–,"inconclusive [inhibitor, partial curve]"
N#Cc1ccc(-n2nccc2-c2cnc3n(c2=O)CCS3)cc1,–,"inconclusive [inhibitor, single point]"
O=C(NCCC(F)(F)F)C1Cc2c(-c3ccc(Cl)cc3)ccnc2O1 (stereo not given),–,"inconclusive [inhibitor, single point]"
Cc1ccccc1NC(=O)NC1(C(=O)NCCCN2CCOCC2)CCCCC1,inactive: 3.13%,–
Cc1c(C(=O)N2CCC(C)CC2)c(S(=O)(=O)N2CCN(c3cccc(Cl)c3)CC2)c(C)n1C,–,"inconclusive [inhibitor, single point]"
COc1ccccc1NS(=O)(=O)c1ccc(C(=O)NCC(c2ccco2)N2CCCCC2)cc1 (stereo not given),inactive: -24.9%,–
CN(CC(=O)Nc1cccc(F)c1)C(=O)c1cc(S(=O)(=O)N2CCCCC2)ccc1N1CCOCC1,–,"inconclusive [inhibitor, full curve, poor fit]"
Cc1ccc2nc(SCC(=O)Nc3ccc(C#N)cc3)[nH]c2c1,–,"inconclusive [inhibitor, single point]"
CC(=O)Nc1ccc(-c2ccnc3c2CC(C)(C(=O)Nc2ccc(C(C)C)cc2)O3)cc1 (stereo not given),–,active: 20.6 µM
CCOc1ccc(C(=O)NCc2ccc3c(c2)CCN3C(=O)c2ccc(C)cc2)cc1OCC,–,active: 13 µM
O=C(O)Cc1ccc(S(=O)(=O)Nc2ccccc2C(=O)O)cc1,inactive: -12.3%,–
CCCCOCCCNC(=O)CN1C(=O)c2ccccc2C1=O,inactive: -4.38%,–
COCc1[nH]nc2c1C(c1ccccc1F)C(C#N)=C(N)O2 (stereo not given),inactive: -19.1%,–

SMILES,"activity change, negative = growth inhibition",Potency
O=C(COc1ncnc2c(Cl)cc(Cl)cc12)NCCC1=CCCCC1,inactive: -16.2%,–
COCc1cc(CN2CCN(CCCc3ccccc3)C(CCO)C2)ccc1OC (stereo not given),inactive: -27.5%,–
Cn1cccc1-c1nc2ccc([N+](=O)[O-])cc2[nH]1,–,"inconclusive [inhibitor, partial curve]"
CN1C(=O)c2[nH]nc(-c3ccc(F)cc3)c2C1c1ccccn1 (stereo not given),–,"inconclusive [inhibitor, single point]"
COc1ccc(S(=O)(=O)c2cn(Cc3ccccc3)c3cc(F)c(F)cc3c2=O)cc1,–,"inconclusive [inhibitor, single point]"
COC(=O)c1sc(N2C(=O)C(O)=C(C(=O)c3ccc(C)o3)C2c2ccc(F)cc2)nc1C (stereo not given),inactive: -28.1%,–
Cc1ccc(-c2cc(-c3nnc(SCC(=O)NCC(C)C)n3N)c3ccccc3n2)cc1,–,"inconclusive [inhibitor, single point]"
COc1ccc(Cl)cc1NC(=O)CN(C)CC(=O)Nc1c(C)n(C)n(-c2ccccc2)c1=O,–,"inconclusive [inhibitor, single point]"
COc1ccc(CCN(C)C(=O)CSc2ncnc3sccc23)cc1OC,–,"inconclusive [inhibitor, single point]"
O=C(NC(=O)c1c(F)cccc1F)Nc1ccccc1SC(F)F,–,"inconclusive [inhibitor, partial curve, poor fit]"
CC(=O)c1c(C)[nH]c(C(=O)COc2ccc3ccc(=O)oc3c2)c1C,–,"inconclusive [inhibitor, single point]"
C=CCOC(=O)C1=C(C)NC(C)=C(C(=O)OCC=C)C1c1cn(-c2ccccc2)nc1-c1ccco1,–,"inconclusive [inhibitor, single point]"
OCCN1CCN(CCCN2c3ccccc3C=Cc3ccccc32)CC1,–,active: 5.96 µM
COc1ccc(-c2nc3ccc(Br)cn3c2CC(C)(C)C)cc1OC,–,"inconclusive [inhibitor, single point]"
O=C(CCSCc1ccccc1F)NCc1ccc(F)cc1,inactive: 15.6%,–
Cc1cc(NC(=S)N(CCN2CCOCC2)Cc2ccccc2F)ccc1Cl,–,active: 18.4 µM
Oc1ccccc1-c1nnc(-c2ccc(C(F)(F)F)cc2)o1,–,"inconclusive [inhibitor, single point]"
NNC(=O)c1sccc1OCc1cccc(C(F)(F)F)c1,–,"inconclusive [inhibitor, single point]"
CCN(CC)c1ccc(/C=N/NC(=O)Nc2nonc2N)cc1,inactive: -19.1%,–
COC(=O)Cn1c(CN2CCc3ccccc3C2)nc2c1c(=O)n(C)c(=O)n2C,–,active: 20.6 µM
Cc1ccccc1Nc1nc(N)nc(COC(=O)c2ccc3c(c2)OCCO3)n1,–,"inconclusive [inhibitor, single point]"
CCOC(=O)C1=C(C)NC(C)=C(C(=O)OCC)C1c1cc(N)ccc1OC(F)F,inactive: -31.5%,–
O=C(O)c1ccccc1Nc1cc(Cl)c2nonc2c1[N+](=O)[O-],inactive: -20.9%,–
O=C(CSc1ccc2nc(-c3ccccc3)cn2n1)Nc1cccc(F)c1,–,"inconclusive [inhibitor, single point]"

SMILES,"activity change, negative = growth inhibition",Potency
COc1ccc(N2C(=S)N(C(=O)c3ccccc3)C(=Nc3ccccc3)C2=Nc2ccccc2)cc1,–,active: 18.4 µM
Cc1cccc(-c2noc(CN(C)C(=O)COc3ccccc3)n2)c1,–,"inconclusive [inhibitor, single point]"
COc1ccc(/C=N/NC(=O)c2cc3c(ccc4ccccc43)o2)cc1OC,–,"inconclusive [inhibitor, partial curve]"
O=C(CCN1CCN(c2ccc(F)cc2)CC1)Nc1ccccc1F,–,"inconclusive [inhibitor, partial curve]"
Cc1ccc(-c2cc(C(F)F)n3ncc(C(=O)N4CCN(c5ccccn5)CC4)c3n2)cc1,–,"inconclusive [inhibitor, single point]"
CC(=O)c1cccc(N2C(=O)CC(N3CCN(S(=O)(=O)c4ccc(Cl)cc4)CC3)C2=O)c1 (stereo not given),inactive: -0.892%,–
C=CCn1c(SCc2nc3sc(C(=O)O)c(C)c3c(=O)[nH]2)nnc1-c1ccc(C(C)(C)C)cc1,inactive: -3.7%,–
Cc1ccc(-n2nc(C(=O)c3ccccc3)n3c(=O)cc(-c4ccccc4)nc23)cc1,inactive: -24.9%,–
COc1ccccc1C(=O)NC(=O)Cn1nc(C)c([N+](=O)[O-])c1C,inactive: 4.95%,–
COCCn1c(=O)[nH]c2cc(C(=O)N3CCN(c4ccc(OC)cc4)CC3)ccc2c1=O,–,"inconclusive [inhibitor, single point]"
COc1ccc(Cn2nnc3c(=O)[nH]c(C4CCN(C(=O)c5ccc(C)cc5)CC4)nc32)cc1OC,–,"inconclusive [inhibitor, partial curve, poor fit]"
CC(C)(C)NCc1cc(Cl)ccc1OCc1ccccc1F,–,"inconclusive [inhibitor, partial curve, poor fit]"
Cc1nc(-c2cn[nH]c2-c2ccc(O)cc2O)cs1,inactive: -29.3%,–
O=C(N/N=C/C=C\c1cccc([N+](=O)[O-])c1)c1cccnc1,–,"inconclusive [inhibitor, single point]"
O=C(c1ccccc1)c1ccc(OCC(O)CNCc2cccc(Cl)c2)cc1 (stereo not given),–,"inconclusive [inhibitor, single point]"
CC(C)(C)OC(=O)N1CCC(C(=O)NNC(=O)c2ccc(Cl)cc2Cl)CC1,inactive: 8.06%,–
O=C(Cc1ccccc1)NCC(=O)N1CCN(c2ccc(F)cc2)CC1,–,"inconclusive [inhibitor, single point]"
Cc1nc(SCC(=O)Nc2sccc2C(N)=O)c2c(C)c(C)sc2n1,–,"inconclusive [inhibitor, single point]"
COC(=O)/C(=C\C(=O)c1ccc([N+](=O)[O-])cc1)Nc1ccc(OC)cc1,–,"inconclusive [inhibitor, single point]"
CCN(CC)CCCNC(=O)CN1N=C(c2ccccc2)CCC1=O,inactive: 17.5%,–
CC(Oc1ccc(Br)cc1)C(=O)Nc1cc(Cl)ccc1N1CCN(C)CC1 (stereo not given),–,"inconclusive [inhibitor, single point]"
O=C(COc1ccc(S(=O)(=O)N2CCCCC2)cc1)NC1CCCCC1,–,"inconclusive [inhibitor, single point]"
